The supplement of paper PMC9446081
The campaign covered roughly 39,000 compounds. About 220 (0.56%) showed activity. This is one part of the list.
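Further: static incubation at 37 °C against the wild-type strain, values averaged over two biological replicates.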

Each compound was assayed on Escherichia coli K-12 BW25113 (assay: relative growth (OD600 normalised to plate interquartile mean) (fraction); higher = less growth inhibition, active = 0.2 or less). Conditions: 50 µM; LB; incubation time: overnight (16-24 h).
For `Cc1ccc(S(=O)(=O)Nc2ccc3c(c2)C(=O)N(C)[C@H]2CC[C@@H](CC(=O)NCCc4ccncc4)O[C@H]2CO3)cc1`, the relative growth was inactive: 0.985. `C[C@H](CO)N1C[C@H](C)[C@@H](CN(C)CC2CCOCC2)Oc2ncc(C#CCc3ccccc3)cc2C1=O` was tested, and the relative growth was inactive: 0.993. With `Cc1noc(C)c1S(=O)(=O)Nc1ccc2c(c1)C(=O)N([C@H](C)CO)C[C@H](C)[C@H](CN(C)Cc1ccc(-c3ccccc3)cc1)O2` the relative growth was inactive: 0.965. For `CO[C@H]1CN(C)C(=O)c2cc(NC(=O)c3ccccc3)ccc2OC[C@H](C)N(C(=O)CN(C)C)C[C@H]1C`, the relative growth was inactive: 0.982. For `C/C=C/c1cnc2c(c1)C(=O)N([C@H](C)CO)C[C@@H](C)[C@H](CN(C)S(=O)(=O)c1ccc(OC)cc1)O2`, the relative growth was inactive: 1.02. For `CCCCNC(=O)NS(=O)(=O)c1ccc(C)cc1`, the relative growth was inactive: 0.963. With `c1ccc2n[nH]nc2c1` the relative growth was inactive: 0.968. `CN(C)c1ccc(CN)cn1` was tested, and the relative growth was inactive: 0.992. In the case of `COc1ccc(NC(=O)Nc2ccc3c(c2)C(=O)N([C@@H](C)CO)C[C@@H](C)[C@@H](CN(C)C(=O)c2ccccc2)OCCCC[C@@H](C)O3)cc1`, the relative growth is reported as inactive: 0.978. In the case of `C[C@@H]1CN([C@@H](C)CO)S(=O)(=O)c2ccc(C#Cc3ccccc3)cc2O[C@@H]1CN(C)C(=O)Cc1ccccn1`, the relative growth is reported as inactive: 0.988. In the case of `Cc1noc(C)c1NC(=O)Nc1ccc2c(c1)CC(=O)N([C@H](C)CO)C[C@@H](C)[C@H](CN(C)Cc1ccc(Oc3ccccc3)cc1)O2`, the relative growth is reported as inactive: 0.889. For `CN(C)N=Nc1[nH]cnc1C(N)=O`, the relative growth was inactive: 0.387. In the case of `CC1(C)OC2CC3C4CC(F)C5=CC(=O)C=CC5(C)C4(F)C(O)CC3(C)C2(C(=O)CO)O1` (centres undefined), the relative growth is reported as inactive: 1.19. For `C[C@@H]1CN([C@H](C)CO)C(=O)c2cc(NS(=O)(=O)c3ccccc3)ccc2O[C@@H](C)CCCCO[C@@H]1CN(C)C(=O)NC1CCCCC1`, the relative growth was inactive: 0.987. In the case of `COc1ccc(NC(=O)N(C)C[C@@H]2OCCCC[C@@H](C)Oc3ccc(NS(=O)(=O)c4ccc(OC)cc4)cc3C(=O)N([C@@H](C)CO)C[C@@H]2C)cc1`, the relative growth is reported as inactive: 1.02. `O=C(N[C@H]1CC[C@H](CC(=O)N2CCOCC2)O[C@H]1CO)c1ccccn1` was tested, and the relative growth was inactive: 0.989. With `C[C@@H]1CN([C@H](C)CO)C(=O)c2cc(NS(=O)(=O)c3cccs3)ccc2O[C@@H](C)CCCCO[C@H]1CN(C)C(=O)C1CCCCC1` the relative growth was inactive: 0.986. For `CC(C)NC(=O)Nc1ccc2c(c1)CC(=O)N([C@H](C)CO)C[C@@H](C)[C@@H](CN(C)Cc1ccc(C(=O)O)cc1)O2`, the relative growth was inactive: 0.994. In the case of `C[C@H]1CCCCO[C@H](CN(C)Cc2ccc(C(F)(F)F)cc2)[C@@H](C)CN([C@@H](C)CO)C(=O)c2cc(NS(=O)(=O)c3cccs3)ccc2O1`, the relative growth is reported as inactive: 0.992. In the case of `CC1=C(C(=O)O)N2C(=O)[C@H](NC(=O)[C@@H](N)c3ccccc3)[C@H]2SC1`, the relative growth is reported as inactive: 1.02. With `C[C@@H]1CCCCO[C@H](CN(C)S(=O)(=O)c2ccc(F)cc2)[C@@H](C)CN([C@@H](C)CO)C(=O)c2cc(NC(=O)Nc3ccc4c(c3)OCO4)ccc2O1` the relative growth was inactive: 1.05. For `Cc1ccc(S(=O)(=O)Nc2ccc3c(c2)C(=O)N([C@H](C)CO)C[C@H](C)[C@H](CN(C)C(=O)Nc2ccc4c(c2)OCO4)OCCCC[C@H](C)O3)cc1`, the relative growth was inactive: 1.01. `CC(C)C#Cc1ccc2c(c1)O[C@H](CN(C)C(=O)c1cccc(F)c1)[C@H](C)CN([C@@H](C)CO)S2(=O)=O` was tested, and the relative growth was inactive: 1.01. For `CCS(=O)(=O)Nc1ccc2c(c1)C(=O)N(C)[C@@H]1CC[C@@H](CC(=O)N[C@H]3CCN(Cc4ccccc4)C3)O[C@@H]1CO2`, the relative growth was inactive: 1.01. `C[C@@H]1CN([C@@H](C)CO)C(=O)c2cc(NC(=O)Nc3cccc4ccccc34)ccc2O[C@@H](C)CCCCO[C@H]1CN(C)Cc1ccc(Cl)c(Cl)c1` was tested, and the relative growth was inactive: 1.02. With `COc1c(O[C@@H]2O[C@H](CO)[C@@H](O)[C@H](O)[C@H]2O)cc2c(c1OC)-c1ccc(SC)c(=O)cc1[C@@H](NC(C)=O)CC2` the relative growth was inactive: 0.751. `COc1ccc(CN(C)C[C@H]2OCCCC[C@H](C)Oc3ccc(NC(=O)Nc4ccc(OC)cc4)cc3C(=O)N([C@H](C)CO)C[C@@H]2C)cc1` was tested, and the relative growth was inactive: 0.992. `COc1ccc(NC(=O)N(C)C[C@H]2OCCCC[C@H](C)Oc3ccc(NC(=O)Nc4ccc5c(c4)OCO5)cc3C(=O)N([C@@H](C)CO)C[C@@H]2C)cc1` was tested, and the relative growth was inactive: 1.01. With `C[C@H]1CN([C@@H](C)CO)C(=O)c2cccc(NC(=O)Nc3cccc4ccccc34)c2O[C@@H]1CN(C)C(=O)Nc1ccc(F)cc1` the relative growth was inactive: 0.986. In the case of `COc1ccc(CN(C)C[C@H]2OCCCC[C@@H](C)Oc3ccc(NC(=O)C4CCCCC4)cc3C(=O)N([C@H](C)CO)C[C@@H]2C)cc1`, the relative growth is reported as inactive: 0.989. With `Clc1ccc(-c2csc(-c3ccc4c(c3)CCO4)n2)s1` the relative growth was inactive: 0.993. In the case of `Cc1cc(=O)[nH][nH]1`, the relative growth is reported as inactive: 0.995. In the case of `Cc1noc(C)c1NC(=O)N(C)C[C@@H]1OCCCC[C@H](C)Oc2ccc(NC(=O)C3CCCCC3)cc2C(=O)N([C@H](C)CO)C[C@@H]1C`, the relative growth is reported as inactive: 0.997. `Cc1noc(C)c1NC(=O)Nc1cccc2c1O[C@H](CN(C)Cc1ccc(-c3ccccc3)cc1)[C@H](C)CN([C@H](C)CO)C2=O` was tested, and the relative growth was inactive: 0.984. With `CN1CCN(C(=O)Cn2cc(-c3ccc(C(=O)NO)cc3)nn2)CC1` the relative growth was inactive: 0.989. In the case of `C[C@H](CO)N1C[C@H](C)[C@@H](CN(C)C(=O)Nc2cccc3ccccc23)OCCCC[C@H](C)Oc2ccc(NC(=O)Nc3ccc(C(F)(F)F)cc3)cc2C1=O`, the relative growth is reported as inactive: 1.04. For `COCCCNC(=O)[C@@]1(Cc2ccccc2N=[N+]=[N-])N=C(c2ccc(OCCCO)cc2)O[C@H]1c1ccccc1`, the relative growth was inactive: 1.02. `C[C@@H]1CN([C@@H](C)CO)C(=O)c2cc(NS(C)(=O)=O)ccc2O[C@H]1CN(C)C(=O)NC1CCCCC1` was tested, and the relative growth was inactive: 0.927. For `C[C@@H]1CN([C@H](C)CO)C(=O)c2cc(NC(=O)Nc3ccc4c(c3)OCO4)ccc2O[C@H]1CN(C)Cc1ccc(Oc2ccccc2)cc1`, the relative growth was inactive: 1.01.
